# This sample is rich in variants without activity.
# B1: tRNA (parent)
# chain: CUCUCGGUAGCCAAGUUGGUUUAAGGCGCAAGACUUUAAUUUAUCACUACGAAAUCUUGAGAUCGGGCGUUCGACUCGCCCCCGGGAGAUUUUUUCCUCGAGCAA
# Variants of: B1
# Test: nonsense suppression (GFP-seq) (ratio to wild type); higher = more function; SUP4oc tRNA, yeast GFP reporter sort-seq
# Summary of the method: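 To measure nonsense suppression, tRNA variants from a library carrying ~3% random mutations were integrated into the yeast genome alongside RFP and a GFP ochre reporter under galactose control. Growth took place in raffinose/galactose medium supplemented with 80 mg/L adenine, followed by sorting into GFP/RFP bins and Illumina sequencing of each bin (phred ≥30). For each variant with ≥100 reads and ≥30 cells, the bin median GFP/RFP values were weighted by its estimated cell share per bin and referenced to the unmutated parent tRNA.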
row,Variant,nonsense suppression
1,C11A U58A C80G,≤ 0.026
2,C11U G85C,≤ 0.026
3,C11A A13U A24G A54C C80U,≤ 0.026
4,C11G C68U G85U,≤ 0.026
5,C11A U58G C77U,≤ 0.026
6,C11A C80G,≤ 0.026
7,C11A C80A,≤ 0.026
8,C11A U17G,≤ 0.026
9,C11A U17C,≤ 0.026
10,C11G U22G,≤ 0.026
11,C11U C34G,≤ 0.026
12,C11G A23U G67U A74U,≤ 0.026
13,C11G A23U G67U A74G,≤ 0.026
14,C11G C34G,≤ 0.026
15,C11G G59A,≤ 0.026
16,C11G G59C,≤ 0.026
17,C11G G65C C68G,≤ 0.026
18,C11U A23C U55G U57G G61A,≤ 0.026
19,C11G G18C G67C G88U,≤ 0.026
20,C11G A24U A60C,≤ 0.026
21,C11U A23G C27G G78C G85C,≤ 0.026
22,G10U G15C A30U G59C G67A,≤ 0.026
23,C11A A14G A31C A62U,≤ 0.026
24,C11G G65U,≤ 0.026

row,Variant,nonsense suppression
1,C11G G65A,≤ 0.026
2,C11A A62U,≤ 0.026
3,C11U G18U A60G,≤ 0.026
4,G10U G28U U35A G59C A60U,≤ 0.026
5,C11G C72G C82U,≤ 0.026
6,C11G C12U A89U,≤ 0.026
7,G10U U57A,≤ 0.026
8,G10U U57G,≤ 0.026
9,C11A G18A G26U,≤ 0.026
10,G10U U20G A62C,≤ 0.026
11,C11G G69A G78U,≤ 0.026
12,C11U U35G G67U,≤ 0.026
13,C11G U76G,≤ 0.026
14,C11A A54C G78C,≤ 0.026
15,C11G G28C C29A U35C C68G,≤ 0.026
16,C11A A33G U76A,≤ 0.026
17,C11G C27G A62C,≤ 0.026
18,C11G G15U C56G C64U,≤ 0.026
19,C11U A13U A14G G66C,≤ 0.026
20,C11A A23U,≤ 0.026
21,C11A A23C,≤ 0.026
22,C11U G19A A33C,≤ 0.026
23,C11G G18C,≤ 0.026
24,C11G U71C,≤ 0.026

row,Variant,nonsense suppression
1,C11G A30G C77A,≤ 0.026
2,C11A U20G G88C,≤ 0.026
3,C11U A24G C72U C79U A87C,≤ 0.026
4,C11A G18A C27G U76G,≤ 0.026
5,C11A A31U A60C,≤ 0.026
6,C11A U21G G86A,≤ 0.026
7,G10U G15A,≤ 0.026
8,G10U U22G A24U,≤ 0.026
9,C11U G78U,≤ 0.026
10,C11A U21G G59A A62U,≤ 0.026
11,C11A G18C U22A,≤ 0.026
12,C11U G18U A62C C64A C82A,≤ 0.026
13,G10U U17C,≤ 0.026
14,C11U U20C G85U,≤ 0.026
15,C11A G67C U70G,≤ 0.026
16,C11A G28C G67A,≤ 0.026
17,G10U G86C,≤ 0.026
18,C11A C34A C56G C77G,≤ 0.026
19,C11A G18U,≤ 0.026
20,C11A G19U G61C,≤ 0.026
21,C11G A23G U57C U76A,≤ 0.026
22,C11U C68U,≤ 0.026
23,C11A U70G U71C,≤ 0.026
24,C11G A13G A30U C77U G86A,≤ 0.026

row,Variant,nonsense suppression
1,C11G A60G G78U,≤ 0.026
2,C11G A31G G69C U70C G86A,≤ 0.026
3,C11A C81G G88U,≤ 0.026
4,C11G C56G G84U,≤ 0.026
5,C11U G25C A74U,≤ 0.026
6,C11U A30C G65C G85C,≤ 0.026
7,C11U A13U G18A C56U,≤ 0.026
8,C11G C81G,≤ 0.026
9,C11U U57C,≤ 0.026
10,C11U A33G A74C C83A,≤ 0.026
11,C11U G28C,≤ 0.026
12,C11U G69C,≤ 0.026
13,C11U G69U,≤ 0.026
14,C11U C68A U76C C83G,≤ 0.026
15,C11A C27A,≤ 0.026
16,C11A C27U,≤ 0.026
17,C11U G26U G88U,≤ 0.026
18,G10U U57G C75A,≤ 0.026
19,C11U G19A,≤ 0.026
20,C11U G19C,≤ 0.026
21,C11G A23G U58A G65C,≤ 0.026
22,G10U U16A G32C A33G G86A,≤ 0.026
23,C11G C29U C80G C83A A89U,≤ 0.026
24,C11U G85C A87G,≤ 0.026

row,Variant,nonsense suppression
1,C11G A33U C79U,≤ 0.026
2,G10U G15U G25U G59A,≤ 0.026
3,C11U G65A,≤ 0.026
4,G10U G19A,≤ 0.026
5,C11A G67A,≤ 0.026
6,C11A G67U,≤ 0.026
7,C11U A33U G88A,≤ 0.026
8,C11U U57A G88C,≤ 0.026
9,G10U U16G G73A U76C,≤ 0.026
10,C11A U17A C27U A62U,≤ 0.026
11,C11G G18A C29G U35G U58G A62U,≤ 0.026
12,C11G A33G A60G G69U,≤ 0.026
13,C11U G19U C72A U76C G86U,≤ 0.026
14,C11G A62G,≤ 0.026
15,C11A A30U C56A C75U U76G,≤ 0.026
16,C11G U16G,≤ 0.026
17,C11U A60U G73C,≤ 0.026
18,C11A G15C U17A G18U A62C A89C,≤ 0.026
19,C11A U55C A62C U76C,≤ 0.026
20,C11U U21A A89G,≤ 0.026
21,G10U G19A A24G C83U,≤ 0.026
22,G10U U16G G88A,≤ 0.026
23,C11U U21G A89C,≤ 0.026
24,G10U U76A,≤ 0.026

row,Variant,nonsense suppression
1,C11A U35G C64U G73A,≤ 0.026
2,G10U G28U,≤ 0.026
3,C11A A31G A60C,≤ 0.026
4,G10U U35G,≤ 0.026
5,C11U C79U,≤ 0.026
6,C11U C79G,≤ 0.026
7,C11A A13C,≤ 0.026
8,G10U G18U,≤ 0.026
9,G10U G18C,≤ 0.026
10,C11G U71G C83G A87G G88A,≤ 0.026
11,C11A U71A,≤ 0.026
12,G10U U21C G69A,≤ 0.026
13,C11G G18U U58C G61C U76C,≤ 0.026
14,C11G C77G G85U,≤ 0.026
15,C11G G26C,0.359
16,C11G U35A,≤ 0.026
17,C11G C29G G61U,≤ 0.026
18,C11G G73C U76G,≤ 0.026
19,C11G G32A,≤ 0.026
20,C11A A13C A14C U57C,≤ 0.026
21,C11G G18C G59C U63C,≤ 0.026
22,G10U G78A,≤ 0.026
23,G10U G78C,≤ 0.026
24,C11G C29G,≤ 0.026

row,Variant,nonsense suppression
1,G10U G18C A24U A33G,≤ 0.026
2,C11A C82A,≤ 0.026
3,C11A G26A G28U,≤ 0.026
4,C11G A23U G86A,≤ 0.026
5,C11G G19A C56U,≤ 0.026
6,C11A A31G C34G,≤ 0.026
7,C11U A24G,≤ 0.026
8,C11U A24U,0.031
9,C11U G18U A24G C29U,≤ 0.026
10,C11U G18A C64G,≤ 0.026
11,C11G A13U G65U,≤ 0.026
12,C11U A24C A54C U58G G66A,≤ 0.026
13,C11U A54G G69A,≤ 0.026
14,C11A A13C G25U,≤ 0.026
15,C11G G19A U35G A89U,≤ 0.026
16,C11G A60G C80U,≤ 0.026
17,C11A A33U C79G,≤ 0.026
18,C11A A24C A60C,≤ 0.026
19,C11U A14U G78A,≤ 0.026
20,G10U G25U U55A C68A U70G U76A,≤ 0.026
21,C11G A31G U55A,≤ 0.026
22,C11G G18C A33G C75A,≤ 0.026
23,C11G U16G U58A G61A G67C,≤ 0.026
